Drawing on PubChem BioAssay (NCI), this text covers TGI for three compounds.

Each structure is given as a SMILES string.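 Test compounds were applied to cells in 96-well plates for 48 hours at 5 doses. The concentration for full growth arrest is given as TGI.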 The source holds more than one record for some entries. This list holds those alone. There may be further records. For some assays here: The tests behind the records often covered other concentration ranges, which the source does not state; some values may only mark the edge of a range. For some assays here: Results that share an entry are repeated measurements in other runs, samples, wells, individuals or studies. Marks in square brackets tell the records apart. The letters are not those of the source and start again with each entry. A value given as a limit tells only on which side of the number the result lay.

Some test systems named below: M14 melanoma; DU-145 prostate; SF-268 CNS; OVCAR-4 ovarian; U251 CNS; K-562 leukemia; UACC-62 melanoma; HT29 colon; TK-10 renal; IGROV1 ovarian.
Holding throughout (test): growth of human tumour cells (NCI), 48 h

For the compound `Cc1ccc(C(=O)NC2C(=O)NC(C(C)C)C(=O)N3CCCC3C(=O)N(C)CC(=O)N(C)C(C(C)C)C(=O)OC2C)c2c1Oc1c(c(C(=O)NC3C(=O)NC(C(C)C)C(=O)N4CCCC4C(=O)N(C)CC(=O)N(C)C(C(C)C)C(=O)OC3C)c3nc(-c4ccccc4)c(=O)oc3c1C)N2` (stereo unspecified), the TGI was 220 nM and 16.7 nM in the test with M14 melanoma; 37 nM and 372 nM in the test with DU-145 prostate; 8.93 nM and 187 nM with SF-268 CNS; 1.16 µM and 40.6 nM with OVCAR-4 ovarian; 3.01 nM and 2.24 µM with U251 CNS.

On to `CC[C@]12C=CCN3CC[C@]4(C(=C(C(=O)OC)C1)Nc1cc5c(cc14)[C@@H]1[C@H](O5)[C@@H](O)[C@@]4(CC)CC(C(=O)OC)=C5Nc6ccccc6[C@@]56CCN1[C@@H]46)[C@@H]32`, for which the TGI in the test with K-562 leukemia is 6.3 µM and > 100 µM; with UACC-62 melanoma, 25 µM and 2.35 µM; with HT29 colon, 5.53 µM and > 100 µM; with U251 CNS it was 5.71 µM and > 100 µM; in the test on TK-10 renal, 4.15 µM and 42.9 µM.

Take `CN1C(=O)C(N=Nc2ccc([N+](=O)[O-])cc2)SC1=S` (stereo unspecified): the TGI in the test with IGROV1 ovarian was > 100 µM [sample A, 1 test] and 7.59 µM [sample B, 1 test].
